The text below walks through data of the supplement of paper PMC10126150.

The data set deals with ATP. The data set can be described thus: switch fluorescence ratio, 500 uM ATP over buffer (Cy3 cluster intensity, sum of 5 cycles each) (fold (ratio)); higher = stronger signal-on switching upon ATP binding; sequences stand for … in TCGTCGGCAGCGTCAGATGTGTATAAGAGACAGTTTTTTTTTTTTTTTTTTTTTTTTT…TC. The settings on record: aptamer strand: ATP DNA aptamer (quencher-CACCTGGGGGAGTATTGCGGAGGAAGG + anchor), 100 nM annealed; ATP concentration: 500 uM; one replicate. In a few lines:
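Cy3-labelled switching-strand clusters on a modified Illumina MiSeq flow-cell were annealed to 100 nM quencher-labelled ATP aptamer, imaged in selection buffer, then imaged after 15 min with 500 uM ATP at 22 °C. Five buffer/ATP cycles ran, with NaOH stripping and re-annealing between them. The fluorescence ratio is summed target-cycle over summed buffer-cycle Cy3 intensity per cluster, averaged per switch-domain sequence. Clusters outside 100-1000 RFU were excluded.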

Sequences with one replicate were seen in a single cluster, so their values are uncertain.
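Note: ATP exposure 15 min at 22 °C before imaging.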

As to GGGAATAGTT, the switch fluorescence ratio came out at 0.971. As for GTCCCTCGAA, the switch fluorescence ratio was 1. In the case of CGATCGACGC, the switch fluorescence ratio came out at 1.88. With TAATCGCTTC, the switch fluorescence ratio is 1.05. For CGACAAAGCA, the switch fluorescence ratio is 1.25. Then TTGACGAGGG, with 0.991; and GCGGCCGCAA, with 0.991; and CGATGCTTAG, with 1.04.

With GATTCCCGA, the switch fluorescence ratio was 1.02. Then ATATAAAAAC, with 1.02. As for GCTCAACGTT, the switch fluorescence ratio was 1.03. Regarding TGGGACGAAG, the switch fluorescence ratio is 0.957. ATATCGGCTC: the switch fluorescence ratio amounted to 0.95. As to TTGCGCGTGG, the switch fluorescence ratio was determined as 0.977. On to CGGCGGCTTT, for which the switch fluorescence ratio turned out to be 0.969.

With CAGTCTGTAC, the switch fluorescence ratio is 1.65. On to CAATACGGCA, for which the switch fluorescence ratio was 1.22. As for TAGACGATA, the switch fluorescence ratio came to 1.

GTCACCAAAT: the switch fluorescence ratio worked out at 1.04. The result for TAACATTACA reads 1.14. As for CCCCTATTGG, the switch fluorescence ratio turned out to be 1.13. Turning to CGCAGGGAA, the switch fluorescence ratio came out at 1.02.

With TAATTTCCTC, the switch fluorescence ratio was found to be 1.09.

Consider TTGCCCTTTT, for which the switch fluorescence ratio stood at 1.01. For ACCAACAAT, the switch fluorescence ratio stood at 1.11. For the sequence TAGTGTTTAT, the switch fluorescence ratio came to 0.992. Turning to GTTGATACCA, the switch fluorescence ratio worked out at 0.95.

In the case of GGCTTATTGC, the switch fluorescence ratio amounted to 0.907.

Turning to CGTTAACCGT, the switch fluorescence ratio was 1.03. Turning to GGGCCTCAGG, the switch fluorescence ratio turned out to be 0.966.

Regarding CACGGTTTTT, the switch fluorescence ratio worked out at 0.971.

TAGCTAAAAA: the switch fluorescence ratio is 0.99. GGCTTTGTTG: the switch fluorescence ratio was found to be 1.01. Turning to GTGGATACTT, the switch fluorescence ratio turned out to be 0.992. In the case of AACTTGGCTC, the switch fluorescence ratio is 1.81. Then TGTGCTTATA, with 0.996. For the sequence AGATAGGCGA, the switch fluorescence ratio was found to be 0.983. For CGTTCAATCG, the switch fluorescence ratio was 0.991. Turning to TCTCGACTCC, the switch fluorescence ratio is 1.23.

As for AACGAAGGCC, the switch fluorescence ratio came to 0.929. For GTTAGGAAAC, the switch fluorescence ratio turned out to be 1.04. The result for AGGTGATGT reads 0.994; that for GACAAGCA, 0.971; that for ATCCGGCTTG, 0.951. Turning to AAACCTATTT, the switch fluorescence ratio turned out to be 0.948.

Take CAGCTTATGA: the switch fluorescence ratio amounted to 0.958. Turning to GGATTTATTC, the switch fluorescence ratio is 1.04.

GCTCAAGCCC: the switch fluorescence ratio turned out to be 1.03. As for CTGCTAAGAC, the switch fluorescence ratio stood at 1.69. The result for GTTTCAAGGT reads 1.06; that for TAATAAGCGC, 0.944; that for AGATCCAGAG, 0.999. On to ACTAGGGCGC, for which the switch fluorescence ratio is 0.952.

In the case of CGGGAGACTG, the switch fluorescence ratio was 0.9. With ACTAAGAACT, the switch fluorescence ratio came to 1.05.

As for GGCGCTGCGG, the switch fluorescence ratio was 1.02. TTCAAACCGA: the switch fluorescence ratio is 1.18. TTAGCCCCGT: the switch fluorescence ratio worked out at 0.989. Then AGTGGCGGCC, with 0.997; and AAACCGCGGG, with 0.991. For TTCGGTGGTG, the switch fluorescence ratio turned out to be 1.22.

On to TCGCGCTACC, for which the switch fluorescence ratio is 1.71. In the case of GAGCGGGTTA, the switch fluorescence ratio worked out at 0.981. As for TTTGCCGAAA, the switch fluorescence ratio stood at 1.01. In the case of GGGTAGGGAG, the switch fluorescence ratio came to 0.944. With TTGTGTCCGC, the switch fluorescence ratio is 1.95. For the sequence GTGTCTAGGG, the switch fluorescence ratio stood at 0.947.
